These results are taken from article PMC7819943, “Rice protein-binding microarrays: a tool to detect cis-acting elements near promoter regions in rice”.

The other results are listed elsewhere or left out.

The assay deals with T1, OsWOX13 (Oryza sativa, UniProt Q5QMM3 1-267).
T1 sequence: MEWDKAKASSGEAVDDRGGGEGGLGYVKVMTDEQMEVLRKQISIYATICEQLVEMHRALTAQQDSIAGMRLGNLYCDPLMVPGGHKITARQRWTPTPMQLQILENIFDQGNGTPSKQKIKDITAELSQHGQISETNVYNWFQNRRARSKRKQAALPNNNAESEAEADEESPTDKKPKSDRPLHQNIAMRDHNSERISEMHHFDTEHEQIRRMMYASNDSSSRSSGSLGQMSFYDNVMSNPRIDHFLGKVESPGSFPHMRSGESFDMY
Nature of the assay: protein-binding microarray (RPBM); PBS, 2% BSA, 51.3 ng/ul salmon testes DNA, 50 uM zinc acetate, 200 nM TF, 25 C, 1 h; high values mean tight binding. Conditions: protein: recombinant; tags: N-terminal polyhistidine and DsRed monomer fusion (pET32a); label: CyDye5-dUTP incorporated in the synthesized complementary strand; 3' TTTTT single-stranded linker to array surface; dsDNA, one strand shown. The method in brief: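 Transcription factors, each fused N-terminally to a polyhistidine tag and DsRed, were expressed in E. coli BL21-CodonPlus and purified on Ni–NTA. A custom Agilent array was made double-stranded by primer extension with Cy5-dUTP and blocked with 2% BSA. It was incubated with 200 nM protein in PBS, 2% BSA, salmon testes DNA and 50 µM zinc acetate at 25 °C for 1 h, then washed. The binding signal is per-feature fluorescence intensity (arbitrary units) read on an Axon 4000B scanner.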
In the case of “TATATGATTTGTGCAATTTAGACCACAATACATAGGGTTACGGAGTCACCTAGTGCAG”, the binding signal is 38100 fluorescence intensity (a.u.).

Regarding “ATAATACAAATATTAGCCTCTACATCCAAAATACATGTGACGGAGTCACCTAGTGCAG”, the binding signal was 7480 fluorescence intensity (a.u.).

With “CAGTTAACTAAACAATGTGCTATGGTTTCTGTCATTCCGTCGGAGTCACCTAGTGCAG”, the binding signal is 3650 fluorescence intensity (a.u.). As for “TTGACTGTAATTATCTAAAGTCTCAAGCACGTACACTATGCGGAGTCACCTAGTGCAG”, the binding signal was 26300 fluorescence intensity (a.u.). With “ACCTCTTCATCATATTTAAATCAAAGAAAACGATTTTCTTCGGAGTCACCTAGTGCAG”, the binding signal was 4320 fluorescence intensity (a.u.). The same measure for “CAACGCATTGAATGAATCAATCAATCAACTCATCAAATCTCGGAGTCACCTAGTGCAG”: 33400 fluorescence intensity (a.u.).

As to “GCGTGGAGTGTCAATTAGTGGTTATTGGTGGTCTAAGGAGCGGAGTCACCTAGTGCAG”, the binding signal was 17100 fluorescence intensity (a.u.). Turning to “ATTTAATTGCAACGAATTTAATGGTGTAATCGGATCATGACGGAGTCACCTAGTGCAG”, the binding signal is 31000 fluorescence intensity (a.u.). For “ATTTCTTTCTTTAATTGCCAGCCCACCATCTCTCCTTCACCGGAGTCACCTAGTGCAG”, the binding signal is 5440 fluorescence intensity (a.u.). “GTCTCTTTAATTGTGTGTTAGAAAGGCACTTACATCACATCGGAGTCACCTAGTGCAG”: the binding signal is 7050 fluorescence intensity (a.u.). In the case of “GTTGACATGAAGTTTTATTCAAAAGGCTCCATATTTCCATCGGAGTCACCTAGTGCAG”, the binding signal is 3680 fluorescence intensity (a.u.). As for “TCAATTTAATTATGCGAGATATAAGCATGTGACTGTCATACGGAGTCACCTAGTGCAG”, the binding signal is 7890 fluorescence intensity (a.u.). For the sequence “TAAGTAATTGATTGGTAGCCAGCTTCTAACTTCTAGCTTACGGAGTCACCTAGTGCAG”, the binding signal was 63600 fluorescence intensity (a.u.). Consider “CATGCATCTCTGCAAGTTAATTGGTTGCATTCTTCTTGTACGGAGTCACCTAGTGCAG”, for which the binding signal is 3380 fluorescence intensity (a.u.).

Take “TCACAATCAGTTGATTACTAGCCACAACTTTCAATCCTAACGGAGTCACCTAGTGCAG”: the binding signal is 12700 fluorescence intensity (a.u.).

Turning to “AAATTGATTGGCTGGTGGCCATAGAAGGAGAACGAAAATACGGAGTCACCTAGTGCAG”, the binding signal was 21800 fluorescence intensity (a.u.). Regarding “CTCAGCCTGATTAATCGGAGATAATGAGTCTACGAATTTGCGGAGTCACCTAGTGCAG”, the binding signal is 9790 fluorescence intensity (a.u.). “CCATCTCAATTATAACTAAACCCAACAAGCTGTGCCTAGCCGGAGTCACCTAGTGCAG”: the binding signal was 4560 fluorescence intensity (a.u.).

As to “TCACAACTTAACTGGCTCTTCTATTTATTTTCCTCACATTCGGAGTCACCTAGTGCAG”, the binding signal was 3880 fluorescence intensity (a.u.).

For the sequence “CAGAAAATAAACTAACAGTCAGACTCTTAGCTATTTTCAGCGGAGTCACCTAGTGCAG”, the binding signal is 7500 fluorescence intensity (a.u.). Take “CTATAAATAATTCTCGTTGATTAGCCTTGGCGGCCAAGTACGGAGTCACCTAGTGCAG”: the binding signal is 9520 fluorescence intensity (a.u.). In the case of “GTTTAGTACTAATTGGAGTAGTATTTTGTTAGTGTAAACCCGGAGTCACCTAGTGCAG”, the binding signal is 9150 fluorescence intensity (a.u.). For “CGCCATACTAGTTAATTTGAATTTGAAAGCTGAGTGGAGGCGGAGTCACCTAGTGCAG”, the binding signal was 7190 fluorescence intensity (a.u.). The result for “ATTGATTAAACTATGTCACTCACTACTCACTGCTAATAGGCGGAGTCACCTAGTGCAG” reads 41500 fluorescence intensity (a.u.); that for “CTTTGTTAACTTTTGACCTAATTATTCATTTTATTTAAAACGGAGTCACCTAGTGCAG”, 4600 fluorescence intensity (a.u.). As to “AAACTATAAATTAAAGAAGATTAGTTTTAAAGACTGTGCTCGGAGTCACCTAGTGCAG”, the binding signal was 10700 fluorescence intensity (a.u.). The same measure for “TTAATCCTAATTAATCCGTCATTAGTAAATGTTTACTATACGGAGTCACCTAGTGCAG”: 8330 fluorescence intensity (a.u.). On to “TGAAACATTATAAGTAAATTAGGTGAAACATCTTTTGTAGCGGAGTCACCTAGTGCAG”, for which the binding signal is 3780 fluorescence intensity (a.u.). On to “CTGAAATTTACCACAAATGAAATTCTTCTCCCTGATGAAACGGAGTCACCTAGTGCAG”, for which the binding signal was 4740 fluorescence intensity (a.u.). The same measure for “GCTCCTGATTTGCCTGATCAGATCAACAGATTAGCATGATCGGAGTCACCTAGTGCAG”: 23600 fluorescence intensity (a.u.). Regarding “TTTAATTTAGTCTCATTGCTTCCGATCTATGTAAACAATACGGAGTCACCTAGTGCAG”, the binding signal is 7500 fluorescence intensity (a.u.). As for “GTAATAATTGATTGGTTCAGAAATTAATCACTAATTGTCCCGGAGTCACCTAGTGCAG”, the binding signal is 65000 fluorescence intensity (a.u.).

For “ACAAGGCTAATTAATTGTATATTGCGTGCAGCTGAGTGGTCGGAGTCACCTAGTGCAG”, the binding signal was 23900 fluorescence intensity (a.u.). The result for “TTATTGTCAAATCATGGCACAATTAGGCTTAAAAGATTTGCGGAGTCACCTAGTGCAG” reads 3660 fluorescence intensity (a.u.). “TCCCAATCTTCTGTTATTTATTTATTTTCTTGTTAAAATTCGGAGTCACCTAGTGCAG”: the binding signal was 5630 fluorescence intensity (a.u.). “TGTTAACTAATGCATAGACAAGTAGTCTTCTATGTACCAACGGAGTCACCTAGTGCAG”: the binding signal was 4160 fluorescence intensity (a.u.). “GTTAATTGCAGGCTTGTTTGGAAACTTCACACAAATTTTGCGGAGTCACCTAGTGCAG”: the binding signal was 18000 fluorescence intensity (a.u.).

With “AAAATGGTAATTTAGTAGTGACATAAATTTTGAACTGGCTCGGAGTCACCTAGTGCAG”, the binding signal is 19700 fluorescence intensity (a.u.). As to “AGTTGATTGTAGTCATGTAAAAGAATCTGTTTCTCCGATGCGGAGTCACCTAGTGCAG”, the binding signal was 45900 fluorescence intensity (a.u.). The same measure for “ATGGCCCAATGACTTTTGATTGATGACTGATGAGTTATTCCGGAGTCACCTAGTGCAG”: 27100 fluorescence intensity (a.u.); for “GTTTAATTAGTTTGTTGAGAGCAAAAGTCAAAATGATTATCGGAGTCACCTAGTGCAG”: 13100 fluorescence intensity (a.u.). Turning to “TATTAAATGATGCACAAATAAATAAACGAGCGCGCACACACGGAGTCACCTAGTGCAG”, the binding signal was 5680 fluorescence intensity (a.u.). The result for “GCACTAATTCCCTAATTTAAACAGATCAACTGGCCTCAATCGGAGTCACCTAGTGCAG” reads 24500 fluorescence intensity (a.u.). “TTTGATTGCTAACCACCGTTGCTGCTCCACCGAATATTCACGGAGTCACCTAGTGCAG”: the binding signal is 25200 fluorescence intensity (a.u.). Turning to “ATCAAATTAACTCGACCAAATATTCCCATTCACACTATTGCGGAGTCACCTAGTGCAG”, the binding signal is 7200 fluorescence intensity (a.u.). For the sequence “ACTAATTTCCAGCTAGCTACCTATATATATGTGTGTGTTACGGAGTCACCTAGTGCAG”, the binding signal was 5820 fluorescence intensity (a.u.). The same measure for “TTGATTACTTTGAGGACGTCAGGGAGCAGGGTGGGCGTGTCGGAGTCACCTAGTGCAG”: 9730 fluorescence intensity (a.u.); for “AATGTGGTAATTAGCTAGTGGACACCGGCTGCATTATTTTCGGAGTCACCTAGTGCAG”: 10900 fluorescence intensity (a.u.). As to “TAAATCCATTATAATCATGTACCCCGTCCCATAATATAAGCGGAGTCACCTAGTGCAG”, the binding signal is 4180 fluorescence intensity (a.u.).

As to “TAACTAAACTAAACTAATTTGATATTACATATGTTACTATCGGAGTCACCTAGTGCAG”, the binding signal was 19500 fluorescence intensity (a.u.). For the sequence “CGTCGTCGTTAGTCTAATGATTGATTAGGAAGGAAAGTACCGGAGTCACCTAGTGCAG”, the binding signal was 29600 fluorescence intensity (a.u.). The same measure for “TAATATTGACGAGAAAGCCACCTCCTCTCTCTCGCTCGCTCGGAGTCACCTAGTGCAG”: 3320 fluorescence intensity (a.u.). For the sequence “GCAAAGTTAACTGAAATTGAATAGGCTTTGTTCAGATTCACGGAGTCACCTAGTGCAG”, the binding signal is 11500 fluorescence intensity (a.u.). For the sequence “AAAATATTATCTAAATTATGGAGCAATTTAATGGCAAAATCGGAGTCACCTAGTGCAG”, the binding signal is 3770 fluorescence intensity (a.u.).
